From PubChem BioAssay AID624202 (National Center for Advancing Translational Sciences (NCATS), 2012)
Hit rate of the full screen: of about 380,000 compounds, about 4,000 (1.1%) were called active. The inconclusive results got no clear call from the source; some entries with a clear call stand among them for comparison. Calls come from the whole dose curve; as a rule, active = well fitted activation curve with a large enough effect; inconclusive = small, poorly fitted or top-dose-only effect; inactive = no such curve, though single readings can be large or run the other way. A potency beside an inconclusive call is a rough fit, not a confirmed value.

experiment: qHTS Assay to Identify Small Molecule Activators of BRCA1 Expression; conditions: MCF7-BRCA1-FFLuc reporter, luminescence, 48 h; activation: at 46.1 µM (top of the series), scaled: vehicle 0%, 10 µM genistein 100% unless noted; note: nearly all actives have a fitted effect of over 80% in size
Outline: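 Cells: MCF7-BRCA1-FFLuc, 2000/well. Exposure: 48 h, 37 °C, 5% CO2. Read: luminescence, 15 min post-substrate. Controls: genistein 10 microM (maximal activation), DMSO (neutral).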
Potency is the fitted concentration of half-maximal effect; tags give direction and shape of the fitted curve.

Structure (SMILES) | Potency
O=C(NCc1ccc2c(c1)OCO2)c1ccccc1 | inactive
COc1ccc(S(=O)(=O)Nc2cc(SCC(=O)O)c(O)c3ccccc23)cc1 | inactive
Cc1ccc(-c2csc(NC(=O)COC(=O)c3cccc(S(=O)(=O)N4CCOCC4)c3)n2)cc1 | active: 5.01 µM
COC(=O)c1cc(OC)c(OC)cc1NC(=O)Nc1ccc(OC)cc1 | inactive
Nc1nc(-c2cccc(Br)c2)cs1 | active: 11.2 µM
O=C(NCc1cccnc1)c1ccccc1CCc1ccccc1 | inconclusive: 22.4 µM [activator, single point]
Cc1ccc(C(=O)Nc2nccs2)cc1 | inconclusive: 2.51 µM [activator, partial curve, poor fit]
Oc1ccc(-c2cccc(-c3ccc(O)cc3)n2)cc1 | inconclusive: 22.4 µM [activator, single point]
Cc1ccc(/C=N/NC(=O)c2nn(C)cc2Cl)cc1 | inconclusive: 10 µM [activator, partial curve, poor fit]
Clc1cccc2sc(-c3nnc(-c4ccccc4)o3)c(Cl)c12 | inconclusive: 3.16 µM [activator, partial curve, poor fit]
COc1cc(/C=N/NC(=O)c2cccc(NC(=O)c3ccccc3Cl)c2)ccc1O | inactive
O=C(O)c1cnn(-c2nc(-c3ccc(Cl)cc3)cs2)c1C(F)(F)F | active: 4.47 µM
Cn1c2ccccc2c2nnc(SCCN3CCOCC3)nc21 | inactive
C/C(=C\c1ccccc1)C(=O)Nc1cc(C)on1 | inconclusive: 17.8 µM [activator, single point]
O=C(CCc1nnc(Cc2cccc(C(F)(F)F)c2)o1)NCCc1ccccc1F | inconclusive: 22.4 µM [activator, single point]
COc1ccccc1CC(=O)Nc1sc2c(c1C(N)=O)CCCC2 | inactive
CCOc1ccc(C(=O)NCc2ccccn2)cc1 | inconclusive: 11.2 µM [activator, partial curve, poor fit]
Cc1occc1C(=O)Nc1ccc2ccccc2c1 | inconclusive: 1 µM [activator, full curve, poor fit]
COc1ccc(NC(=O)c2ccc(Br)o2)cc1 | inconclusive: 10 µM [activator, partial curve, poor fit]
Cc1c(Cl)cccc1NC(=O)c1cc(-c2ccccc2O)n[nH]1 | inconclusive: 1.58 µM [activator, partial curve, poor fit]
CCN=C1NN=C(c2ccc(C)cc2)CS1 | active: 2.24 µM
CC(=O)Nc1ccc(C(=O)CSc2nnc(-c3ccc(O)cc3)n2CC2CCCO2)cc1 (configuration not stated) | inactive
